# In the supplement of paper PMC7826260:
# Some of the results follow. One pool of 16,384 single-stranded DNAs met each Rep nickase domain in vitro (1 h at 37 °C, 3 µM enzyme); the outer parts of the 90-letter strands are left off. A value is the log2 ratio of uncut reads to the pool without enzyme; uncut sequences lie near 0, cut ones below; no hit call is given. Because reads are shares of a total, they shift together, so uncut sequences can rise above 0 when many others are cut.
# What was measured:
# Assay in all cases: uncleaved DNA left, log2 of reads against the no-enzyme library (log2 ratio); higher = less cleavage (more negative = more Rep cleavage of the k-mer); sequences stand for … in CTCGTCCG…ACCGGAGA
# [1] = test system: T1, Rep nickase domain of Muscovy duck circovirus
# T1 sequence (Rep 1-111, printed without the tag): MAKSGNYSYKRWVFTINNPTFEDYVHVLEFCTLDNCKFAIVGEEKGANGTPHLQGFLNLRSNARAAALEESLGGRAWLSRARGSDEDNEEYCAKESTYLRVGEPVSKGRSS
# Method: (§1)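 A pool of 90-nt single-stranded DNAs with seven random bases just before the constant AC of the nick site (name = the seven bases) was cut by 3 µM recombinant His6-SUMO-tagged Rep nickase domain (300 nM DNA, 50 mM HEPES pH 8.0, 50 mM NaCl, 1 mM MnCl2, 1 h, 37 °C, three replicates). Uncut DNA was amplified and sequenced.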
# [2] = test system: T2, Rep nickase domain of banana bunchy top virus
# T2 sequence (Rep 1-94, printed without the tag): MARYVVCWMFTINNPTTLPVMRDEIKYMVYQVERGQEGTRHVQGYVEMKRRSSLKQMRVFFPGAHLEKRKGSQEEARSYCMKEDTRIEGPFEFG
# Method: as §1
# [3] = test system: T3, Rep nickase domain of cabbage leaf curl virus
# T3 sequence (Rep 1-116, printed without the tag): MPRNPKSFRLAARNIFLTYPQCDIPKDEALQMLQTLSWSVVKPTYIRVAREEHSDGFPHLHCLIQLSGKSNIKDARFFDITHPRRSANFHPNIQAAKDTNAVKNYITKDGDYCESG
# Method: as §1
# [4] = test system: T4, Rep nickase domain of chickpea chlorotic dwarf virus
# T4 sequence (Rep 1-124, printed without the tag): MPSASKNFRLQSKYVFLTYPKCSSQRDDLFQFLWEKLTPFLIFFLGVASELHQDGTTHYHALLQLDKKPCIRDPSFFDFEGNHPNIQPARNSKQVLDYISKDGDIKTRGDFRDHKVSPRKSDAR
# Method: as §1
# [5] = test system: T5, Rep nickase domain of faba bean necrotic yellows virus
# T5 sequence (Rep 1-98, printed without the tag): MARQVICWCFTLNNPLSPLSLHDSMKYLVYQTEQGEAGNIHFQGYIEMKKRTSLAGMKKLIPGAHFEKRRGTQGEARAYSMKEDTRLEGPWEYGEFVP
# Method: as §1
# [6] = test system: T6, Rep nickase domain of maize striate mosaic virus
# T6 sequence (Rep 1-117, printed without the tag): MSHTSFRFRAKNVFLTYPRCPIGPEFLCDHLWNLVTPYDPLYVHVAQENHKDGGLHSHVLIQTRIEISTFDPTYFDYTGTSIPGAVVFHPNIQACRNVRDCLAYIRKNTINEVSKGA
# Method: as §1
# [7] = test system: T7, Rep nickase domain of porcine circovirus 2
# T7 sequence (Rep 2-116, printed without the tag): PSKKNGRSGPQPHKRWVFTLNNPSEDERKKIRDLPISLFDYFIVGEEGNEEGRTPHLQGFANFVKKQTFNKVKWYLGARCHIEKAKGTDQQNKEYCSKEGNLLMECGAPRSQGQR
# Method: as §1
# [8] = test system: T8, Rep nickase domain of tomato golden mosaic virus
# T8 sequence (Rep 1-124, printed without the tag): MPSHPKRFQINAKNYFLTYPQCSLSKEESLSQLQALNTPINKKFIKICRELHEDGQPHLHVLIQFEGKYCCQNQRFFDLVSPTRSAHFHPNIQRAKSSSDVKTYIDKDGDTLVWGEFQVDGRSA
# Method: as §1
# [9] = test system: T9, Rep nickase domain of tomato yellow leaf curl virus
# T9 sequence (Rep 1-136, printed without the tag): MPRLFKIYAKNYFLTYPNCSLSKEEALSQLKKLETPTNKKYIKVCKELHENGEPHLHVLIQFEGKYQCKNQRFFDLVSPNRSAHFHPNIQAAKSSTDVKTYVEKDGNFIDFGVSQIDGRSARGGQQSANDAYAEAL
# Method: as §1
# [10] = test system: T10, Rep nickase domain of wheat dwarf virus
# T10 sequence (Rep 1-137, printed without the tag): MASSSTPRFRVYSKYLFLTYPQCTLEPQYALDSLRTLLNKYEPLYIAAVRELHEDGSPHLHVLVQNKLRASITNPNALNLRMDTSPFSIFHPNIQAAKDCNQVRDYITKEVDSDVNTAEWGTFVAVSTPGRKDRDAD
# Method: as §1
Sequence,uncleaved DNA left (log2) [1],uncleaved DNA left (log2) [2],uncleaved DNA left (log2) [3],uncleaved DNA left (log2) [4],uncleaved DNA left (log2) [5],uncleaved DNA left (log2) [6],uncleaved DNA left (log2) [7],uncleaved DNA left (log2) [8],uncleaved DNA left (log2) [9],uncleaved DNA left (log2) [10]
ATACCCT,-0.0683,0.0762,0.298,-0.487,0.138,0.425,-0.256,0.058,0.0146,0.0437
TGGCGGT,0.00909,-0.0825,-0.124,-0.191,-0.0766,-0.265,-0.107,-0.0336,-0.165,-0.0627
AATGTAT,0.00229,-0.0213,0.19,0.491,-0.0661,1.12,-0.204,0.0288,-0.0504,-0.0053
TTATACG,0.0172,0.0745,-0.775,-0.731,-0.106,-1.17,0.125,-0.028,0.0444,-0.0687
ACCCTAC,-0.103,-0.115,-0.407,-1.7,-0.1,-0.884,0.028,0.00301,-0.232,-0.0782
TACGGTT,0.0187,-0.144,-1.66,-2.27,-0.0896,0.86,-0.343,-0.0415,-0.142,-0.287
ATCGATC,0.0261,-0.091,-0.148,0.0766,0.0225,-0.47,-0.08,-0.146,-0.115,-0.0443
ATCGAGA,0.113,0.115,0.834,1.46,0.178,0.948,0.0901,0.144,0.0961,0.171
GCTCCAG,0.0175,-0.0187,-0.393,-0.128,-0.203,-0.851,-0.0644,0.0151,0.0199,0.0478
GTATAAC,0.112,0.0374,0.242,0.6,0.111,1.58,0.0902,0.104,0.00967,0.153
TGGTTAA,-0.0578,-0.0662,0.119,0.148,-0.126,0.598,-0.217,-0.0362,-0.0221,-0.0623
TCTACCA,-0.239,-0.148,-0.197,-2.48,-0.123,-0.327,-0.789,-0.151,-0.0221,-0.137
GTCTCTC,0.133,0.0136,0.365,0.935,0.00359,1.64,0.106,0.0992,0.0892,0.0654
CGCGCGT,-0.0659,-0.0845,-0.77,-0.619,-0.045,-0.593,-0.00653,-0.113,-0.0686,-0.153
ATCGTTA,0.193,0.115,-0.176,-1.21,0.00269,-0.578,-0.162,0.0615,0.108,-0.033
TTGCCGC,-0.208,-0.19,-0.934,-0.451,-0.213,-0.926,-0.303,-0.324,-0.112,-0.122
GAGGTAT,0.0323,0.103,0.493,1.19,0.0156,1.81,-0.309,-0.00946,-0.0228,0.0948
CCTCAAT,-0.0977,-0.188,-0.0128,-0.0673,-0.0453,0.146,-0.146,-0.172,0.0189,-0.11
CTCCTAA,-0.0467,-0.105,-0.118,-0.43,-0.0816,-0.615,-0.137,-0.0849,0.0212,0.028
AGGTCCG,0.0354,0.0653,-0.708,-0.223,0.0429,-0.852,0.186,0.0437,-0.0632,-0.0191
TTACGGT,0.103,0.0717,0.388,-0.18,0.0177,1.42,-0.029,0.103,0.014,-0.0269

Sequence,uncleaved DNA left (log2) [1],uncleaved DNA left (log2) [2],uncleaved DNA left (log2) [3],uncleaved DNA left (log2) [4],uncleaved DNA left (log2) [5],uncleaved DNA left (log2) [6],uncleaved DNA left (log2) [7],uncleaved DNA left (log2) [8],uncleaved DNA left (log2) [9],uncleaved DNA left (log2) [10]
GAAGCGC,0.181,0.158,-0.568,-0.205,0.138,-0.67,0.181,0.0641,0.0932,-0.0817
TCCGCTA,-0.158,-0.173,-0.0663,-0.501,-0.12,-0.442,-0.0567,-0.227,-0.275,-0.194
TCCATAC,0.00847,-0.094,-0.0547,-0.734,-0.0295,-0.911,0.0644,-0.0361,-0.0094,-0.112
GAATCGT,-0.17,0.107,-2.28,-2.3,0.0115,-0.919,-1.61,-0.267,-0.0163,-0.58
CCGGTAG,-0.0624,-0.148,-0.819,-0.265,-0.0258,-0.762,0.173,-0.00188,-0.0643,-0.0855
CTGATGG,-0.0534,-0.139,-0.209,-0.0147,-0.00214,-0.724,-0.00161,-0.119,-0.19,-0.159
AAGGGTA,-0.0694,0.136,0.301,1.31,-0.0521,1.5,0.0831,0.163,-0.0287,0.0453
GTACATC,0.0141,0.0729,0.473,1.17,0.0419,1.84,0.118,-0.0103,0.0419,0.105
GTCATAC,-0.0556,-0.0857,0.211,0.734,-0.113,1.46,-0.116,-0.081,-0.0343,-0.0661
ACGGCAA,0.127,0.141,0.0304,0.143,0.0117,-0.532,0.153,0.166,0.141,0.111
TGAGCGG,-0.0148,0.056,0.228,1,-0.0864,1.26,0.217,0.141,-0.0939,0.0357
CGAGCCA,0.0278,0.0411,0.112,-0.15,0.129,0.305,-0.897,0.0575,-0.0526,-0.00564
CAAAGGT,0.0468,-0.0471,-0.038,0.0773,-0.0561,0.867,0.0565,0.143,-0.135,-0.0849
GATCACG,-0.0678,-0.165,-0.69,-0.431,-0.0577,-1.13,-0.032,-0.183,-0.0683,-0.255
AATAGGC,0.0689,-0.00517,0.195,0.272,0.0853,-0.531,0.107,0.0515,0.0333,-0.0103
CTGACCC,-0.0486,-0.0311,0.023,0.4,-0.0501,0.188,-0.021,-0.0249,-0.073,0.044
TTGGTAT,0.0178,0.0778,0.429,1.31,0.0146,1.62,0.0384,0.0807,0.104,-0.0011
ACGGCAC,-0.0922,0.00748,-0.196,-0.167,0.016,-0.424,0.0434,0.0249,-0.101,-0.000519
CACCCGG,0.0394,0.0358,0.394,1.12,-0.14,0.918,0.063,0.185,-0.093,0.0016
AATATTG,0.106,-0.0549,-0.277,-0.468,0.0806,-0.889,0.156,0.087,0.0422,0.0337
CACTTGG,0.0375,-0.0733,-0.679,-0.579,-0.0424,-1.13,-0.0593,-0.143,0.0192,-0.151

Sequence,uncleaved DNA left (log2) [1],uncleaved DNA left (log2) [2],uncleaved DNA left (log2) [3],uncleaved DNA left (log2) [4],uncleaved DNA left (log2) [5],uncleaved DNA left (log2) [6],uncleaved DNA left (log2) [7],uncleaved DNA left (log2) [8],uncleaved DNA left (log2) [9],uncleaved DNA left (log2) [10]
CAGCACT,-0.00522,0.0166,-0.174,-2.53,0.0813,0.151,-2.93,0.127,-0.0782,-0.16
CGGTTAA,0.0788,0.0096,0.0184,0.1,-0.00716,0.143,-0.00148,0.0464,-0.0747,-0.0301
CGTTTAG,0.249,0.264,-0.608,-0.348,0.207,-0.91,0.348,0.131,0.197,0.132
TCAATGC,-0.0352,0.00963,-0.728,-0.533,-0.0185,-1.34,0.132,0.031,0.0168,-0.198
TGATTGA,0.0987,0.0755,0.00693,0.273,0.167,-0.401,0.109,0.0859,0.081,0.0384
CACTAAA,-0.169,-0.0751,-0.161,-0.86,-0.0753,-0.697,-1.34,-0.0665,-0.166,-0.0497
CAACTAA,0.0435,0.0629,-0.212,-1.54,0.134,-0.668,-0.0853,0.0525,0.104,0.114
CCGACAA,0.0932,0.0386,0.256,0.336,0.223,0.151,0.0782,0.023,0.0425,0.18
CCGGACC,-0.135,-0.0807,0.126,0.501,-0.119,0.763,-0.0152,-0.135,-0.0148,-0.0898
CAAGCAG,-0.0805,-0.0959,-0.0882,0.387,-0.0878,-0.327,0.103,-0.0801,-0.0579,-0.0686
CAAGTGC,-0.0894,-0.0924,-0.714,-0.728,-0.083,-1.29,0.0468,-0.0461,0.0454,-0.197
GCCACTA,0.0572,-0.00719,0.117,-0.249,0.0833,0.166,0.0253,-0.0156,-0.0284,0.0463
AACTTAA,-0.0486,0.0598,-0.154,-0.773,0.063,-0.57,-2.04,0.158,0.125,0.0729
CACGTAT,0.192,0.153,0.0267,-1.17,0.026,-0.237,-0.0208,0.198,0.108,0.0848
TATCAAG,-0.0778,0.00291,-0.74,-0.767,0.0431,-1.35,0.11,-0.106,-0.118,-0.0642
TTGAGAC,0.164,0.161,0.294,0.887,0.179,-0.267,0.278,0.052,0.185,0.16
CACAACA,-0.0852,-0.0245,-0.324,-2.67,-0.106,-0.749,-0.0597,-0.0589,-0.0556,-0.0368
GAATGTC,0.0235,0.121,-0.6,0.553,0.0786,0.828,-0.0199,0.0566,0.0952,-0.0556
ATTTCGG,-0.0352,0.00876,0.505,1.43,-0.095,1.75,0.109,0.0802,-0.188,0.047
TCGTATT,-3.94,-3.53,-3.23,-3.08,-3.28,-1.11,-4.03,-1,-0.0204,-1.94
